Experimental data taken from PubChem BioAssay AID1508623 (National Center for Advancing Translational Sciences (NCATS), 2021).
About 450 (0.94%) of roughly 48,000 compounds were called active. Not shown: some 19% with an inconclusive outcome. The call rests on the fitted dose curve; in most records, active means well fitted inhibition curve with a large enough effect; inconclusive means small, poorly fitted or top-dose-only effect; inactive means no such curve, though single readings can be large or run the other way. The list shows a part of the results.

test: Primary qHTS for Identification of Small Molecule Inhibitors of Huntingtin Promoter Activity; settings: HEK293 HTT promoter firefly luciferase reporter (activity 0% = vehicle and -100% = no light), 24 h; series mostly up to 57.5 µM; activity change, negative = inhibition: at the top concentration; further: nearly all actives have a fitted effect of over 50% in size
In short: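 Firefly luciferase readout (Dual-Glo, 10 min RT) after 24 h, 37 °C compound exposure (final up to 57.5 uM) of HEK293 reporter cells cultured 24 h beforehand; PTC124 at 50 uM final as control inhibitor; activity scaled vehicle 0%, zero RLU -100%.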

Activity change, negative = inhibition, inactive:
CCc1ccccc1NC(=O)C1CCCN(c2cnccn2)C1 (stereo not drawn) -10.6%
C=C(C)C(=O)OCC(O)CO (stereo not drawn) 10.7%
CCOc1nc2cccc(C(=O)O)c2n1Cc1ccc(-c2ccccc2-c2nn[nH]n2)cc1 1.25%
NC(=O)NN=Cc1ccc([N+](=O)[O-])o1 3.43%
Cc1ccc(NC(=O)CSc2nc(=O)cc(N)n2CCc2ccccc2)cc1 3.67%
O=C(Nc1cccc(NC(=O)c2ccccc2Cl)c1)c1cccc(Br)c1 -28.9%
O=C(CCn1cnc2onc(-c3ccc(F)cc3)c2c1=O)N1CCN(c2cccc(Cl)c2)CC1 -16.4%
O=C(Nc1ccccc1C(F)(F)F)N1CCN(c2ccc3nnc(-c4ccc(F)cc4)n3n2)CC1 -31.2%
CCC(C(=O)NCCCN(CC)CC)n1ncn2c(cc3occc32)c1=O (stereo not drawn) -15.8%
CCOc1ccc(CNC(=O)C2Cc3cc(S(=O)(=O)N4CCCCCC4)ccc3N2C(C)=O)cc1 (stereo not drawn) -9.62%
Cc1ccc(NC(=O)Cn2c(-c3nonc3N)nc3ccccc32)cc1Cl -1.56%
CCOc1ccc(OCC)c(NC(=O)C2CCN(c3cnccn3)CC2)c1 -15.4%
O=C(Nc1nnc(S(=O)(=O)N2CCOCC2)s1)c1ccc(F)cc1 4.94%
O=C(c1ccc(F)cc1F)N1CCC(c2noc(-c3ccc(S(=O)(=O)N4CCCC4)cc3)n2)CC1 -7.32%
CCc1ccc(S(=O)(=O)c2nnn3c2nc(NCc2ccccc2OC)c2cc(Cl)ccc23)cc1 -4.96%
Cc1ccccc1-c1noc(-c2ccccc2OCC(=O)Nc2ccccc2[N+](=O)[O-])n1 -12%
Cn1c(=O)oc2cc(S(=O)(=O)Nc3ccc(O)cc3)ccc21 -19.2%
COc1ccc(C2NC(=O)N(C)C3=C2C(=O)N(c2ccc(C)cc2)C3)cc1 (stereo not drawn) -13.1%
Cc1ccc2oc(=O)n(CCNC(=O)Nc3ccc(C)c(F)c3)c2c1 -6.88%
Cc1ccccc1CSc1nc2cccnc2n1Cc1ccc(C(=O)NCCc2cccs2)cc1 -12%
COc1ccc(Cl)cc1N(C)C(=O)C(=O)Nc1ccc2nc3n(c(=O)c2c1)CCCCC3 -11.1%
Cc1ccc(N2CCN(C(=O)c3noc4c3COc3ccc(C)cc3-4)CC2)c(C)c1 -9.83%
COc1ccc(NC(=O)CSc2nc(-c3ccccc3)nc3c2Cc2c(CO)cnc(C)c2O3)cc1Cl -13.2%
Cc1ccc(C)c(N2CCN(C(=O)C(C)n3c(C)c4cnn(-c5ccccc5)c(=O)c4c3C)CC2)c1 (stereo not drawn) -5.56%
Cc1ccc(CNC(=O)c2c(-c3cccc(Br)c3)noc2C)o1 -17.7%
CC(Nc1ccc(-c2nc(-c3ccccn3)no2)cc1[N+](=O)[O-])c1ccccc1 (stereo not drawn) 20.5%
Cc1ccc(C)c(Cn2nc(C)n3c(cc4cc(C)ccc43)c2=O)c1 35.2%
O=C(CSCc1cnn(-c2ccccc2)c1-n1cccc1)Nc1ccc(F)cc1F -18.4%
CCc1ccc(NC(=O)C(=O)NCC(c2cccnc2)N2CCOCC2)cc1 (stereo not drawn) -28.1%
CCc1ccc(NC(=O)c2cc3c(=O)n(Cc4cccnc4)ccc3nc2C)cc1 -21%
Cc1cccc(C(=O)Nc2cccc(OCc3cc(=O)n4c(C)csc4n3)c2)c1 12.9%
CC(C)c1nn2c(=O)cc(COC(=O)CNC(=O)c3ccccc3)nc2s1 -11.4%
OCCc1ccccc1 9.7%
COc1ccc(-c2noc(CCC(=O)NCc3ccc(OC)cc3OC)n2)cc1 -38.7%
O=C(O)c1ccccc1Nc1cccc(C(F)(F)F)c1 8.1%
CCn1cc(C(=O)N(C)Cc2ccccc2)c(=O)c2cc(S(=O)(=O)N3CCCCCC3)ccc21 -1.9%
Cc1cc(C)cc(OCC(=O)N(Cc2ccc(C)o2)C2CCS(=O)(=O)C2)c1 (stereo not drawn) -13.8%
Cc1ccc(-c2nn3c(=O)cc(CN4CCN(C(=O)Nc5cc(Cl)ccc5C)CC4)nc3s2)cc1 -16.2%
CCC(CC)C(=O)Nc1ccc2nc(SCC(=O)N3c4ccccc4CC3C)sc2c1 (stereo not drawn) -21.9%
Clc1ccc(C(c2ccccc2Cl)C(Cl)Cl)cc1 (stereo not drawn)
CCOC(=O)c1c(C)sc(-c2c(-c3ccc(OC)c(F)c3)[nH]c3c2c(=O)[nH]c(=O)n3C)c1O -24.8%
CC(C)Oc1ccc(CNC(=O)c2ccc3nc(Cc4ccccc4)oc3c2)cc1 -29.2%
COc1ccc(Cl)cc1NC(=O)c1c(NCc2ccc(C)o2)sc2c1CCCC2 -4.8%
Cc1ccc(CN(Cc2ccco2)C(=O)c2oc3c(C)c(C)ccc3c2C)cc1 -26.8%
C=C1C(=CC=C2CCCC3(C)[C@@H]([C@H](C)C=CC=CC(O)(CC)CC)CC[C@@H]23)C[C@@H](O)C[C@@H]1O (stereo partly drawn) -11.2%
COCCNC(=O)c1cc2c(Cl)nc3ccc(C)cc3c2s1 2.4%
COc1cccc(N(CC(=O)N2CCC(C)CC2)S(=O)(=O)c2ccc(C)cc2)c1 -23.6%
COc1cc(OC)c(Nc2ncnc3onc(-c4cccc(Cl)c4)c23)cc1Cl -16.7%
CCC(C)NC(=O)CSc1nc2cc3c(cc2c(=O)n1CCCC(=O)NCc1ccc2c(c1)OCO2)OCO3 (stereo not drawn) -13.6%
CCCCOc1ccc(C2=NC(c3ccccc3)=Nc3ccc(OC)cc3N2)cc1 15.5%
Cn1c(=O)c2c(-c3ccccc3Br)n(CCc3ccccc3)cc2n(C)c1=O -14.8%
Clc1ccccc1Cc1cn2cc(-c3ccccc3)nc2s1 -9.27%
O=C1O[C@H]([C@@H](O)CO)C(O)=C1O 5.8%
C=CCc1c(C)nc2nc(SCC(=O)Nc3ccc(OCC)cc3)nn2c1C 1.66%
Cc1cc(C)cc(NC(=O)C2(c3cccs3)CCOCC2)c1 -4.06%
CC(C)c1ccc(Nc2ncnc3c2c(-c2ccccc2)cn3-c2ccccc2)cc1 -11.9%
COc1ccccc1NC(=O)CSc1nnc2c3ccccc3n(C)c2n1 -9.31%
Clc1cccc(-n2ncc3c(N4CCN(Cc5ccccc5)CC4)ncnc32)c1 -9.6%
COc1cccc(CNC(=O)Cn2ccc3cc(S(=O)(=O)N4CCC(C)CC4)ccc32)c1 -17%
Cc1ccc(-c2nc3cccnc3s2)cc1NC(=O)Cc1ccccc1 50.5%
Cc1cccc(C)c1OCC(=O)N[C@@H](Cc1ccccc1)[C@@H](O)C[C@H](Cc1ccccc1)NC(=O)[C@H](C(C)C)N1CCCNC1=O -18.8%
COc1ccc(NC(=O)Cn2ccn(-c3ccccc3)c(=O)c2=O)cc1 -5.17%
COc1ccccc1Nc1ncnc2c1nc1n2CCCC1 34.3%
Cc1ccc(-n2nc(C)c3c(C(=O)Nc4ccc(Br)c(C)c4)cc(C)nc32)cc1 -7.72%
COCCNC(=O)CSc1nc(-c2ccc(C)cc2)nc2c1c(=O)n(C)c(=O)n2C -6.19%
COC(=O)C1=C(C)NC(=O)C1(NC(=O)c1ccccc1C)C(F)(F)F (stereo not drawn) -2.47%
COc1cccc(-c2nc(SCC(=O)N3CCc4ccccc43)c3c(=O)n(C)c(=O)n(C)c3n2)c1 -0.553%
COc1ccccc1NC(=O)c1c(NC(=O)c2ccccc2Cl)sc2c1CCC2 0.195%
CCOc1ccc(CNC(=O)CCCn2c(=O)c3cccn3c3ccc(F)cc32)cc1 -0.103%
Cn1c(=O)c(=O)n(C)c2cc(NC(=O)c3ccccc3Br)ccc21 3.1%
CC(=O)N1CCc2c(sc3c2c(=O)n(Cc2ccccc2)c(=O)n3CC(=O)Nc2ccc(C)c(F)c2)C1 -24.1%
COc1ccc(CN2C(=O)C(NC(=O)c3ccccc3OC)(C(F)(F)F)N=C2c2ccccc2)cc1 (stereo not drawn) -26.2%
CCc1ccc(NC(=O)CCn2cnc3ccccc3c2=O)cc1 1.67%
COc1ccccc1CNc1nc(-c2ccco2)nn1S(=O)(=O)c1ccc(Cl)cc1 29.8%
COc1cc(OC)c(NC(=O)Cn2c(=O)cc(C(F)(F)F)c3c(C)nn(C)c32)cc1Cl -4.47%
COCCNC(=O)C(=O)Nc1c2c(nn1-c1ccccc1)CS(=O)(=O)C2 -3.89%
CCc1ccccc1NC(=O)c1cnn2c(C(F)(F)F)cc(-c3ccc(OC)c(OC)c3)nc12 -8.86%
COc1ccccc1OCc1ccc(C(=O)Nc2ccc(C)c(C)c2)o1 -2.7%
CCOC(=O)c1cnn(-c2cccc(F)c2)c1C1CCNCC1 -7.44%
Cc1cccc(NC(=O)Cn2nc(N3CCN(c4ccccc4)CC3)ccc2=O)c1C 1.96%
CCOc1ccc(CCNC(=O)Cn2nc(C)c3c(C)n(-c4ccccc4)nc3c2=O)cc1OCC -12.2%
CCOC(=O)c1c(C)sc(-c2c(-c3cc(C)ccc3C)[nH]c3c2c(=O)[nH]c(=O)n3C)c1O 9.57%
O=C(Nc1ccccc1C(=O)O)c1cccc(S(=O)(=O)N2CCCC2)c1 54.5%
CCCCN(CC)CCCNC(=O)c1cn(C)c2ccc(S(=O)(=O)N(C)C3CCCCC3)cc2c1=O -43% [at 11.5 µM]
CCOc1cc(C(=O)NCc2ccc3c(c2)CCN3C(=O)CC)cc(OCC)c1OCC -4.68%
COc1cccc(CNC(=O)CCC(=O)N2CC3CCCN3c3ccccc32)c1 (stereo not drawn) -12.8%
Cc1ccccc1NC(=O)CN(C)S(=O)(=O)c1cccc2nsnc12 3.24%
CCC(Cn1nnc2ccccc2c1=O)NC(=O)Nc1cccc(Cl)c1 (stereo not drawn) -14.3%
COc1ccc(-c2[nH]ncc2C(=O)NCc2ccc(F)cc2)cc1 -20.6%
CCc1cccc(NC(=O)Cn2c(=O)n(CC3CCC(C(=O)NCCc4ccccc4)CC3)c(=O)c3ccccc32)c1 (stereo not drawn) -9.42%
COc1ccccc1CCNC(=O)Cc1c(C)c2c(cc(C)c3c(C)coc32)oc1=O -8.68%
O=C(NC1CC(=O)N(c2cccc(F)c2)C1)C1CCCCC1 (stereo not drawn) -7.44%
CN(C(=O)Nc1cn(C)c(=O)c2ccccc12)c1ccccc1 -15.7%
COc1ccc(Cl)cc1NC(=O)CN1c2ccccc2S(=O)(=O)c2ccccc21 -14%
O=C(CSC1=Nc2ccccc2N=C(c2ccc(F)cc2)C1)Nc1cc(F)ccc1F -0.5%
COCCCNC(=O)c1c(NC(=O)c2cc(=O)c3cc(C)c(C)cc3o2)sc2c1CCCC2 -0.212%
COc1ccccc1CCNC(=O)c1cc2ccccn2n1 31.9%
CCCN1C(=O)CN(C2CCCCCC2)C(=O)C1c1ccc(OCC)c(OC)c1 (stereo not drawn) -5.51%
